Among all 320,000 compounds or so, about 9,100 (2.8%) were called active. The shares of active, inactive and inconclusive entries below differ from those in the screen. Calls come from the whole dose curve; as a rule, active = well fitted activation curve with a large enough effect; inconclusive = small, poorly fitted or top-dose-only effect; inactive = no such curve, though single readings can be large or run the other way. Potencies of inconclusive entries are left out as doubtful fits.
Test: qHTS Assay for Rab9 Promoter Activators; note: nearly all actives have a fitted effect of over 60% in size
Settings: Huh7 Rab9 promoter-luciferase reporter, luminescence, 24 h; series mostly up to 9.22 µM
Summary of the method: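 Cells were plated at 1500 per well in reduced-serum medium with 10% FBS and left 2 h. Compound in DMSO was then added for 24 h at 37 °C. Reporter signal was read by luminescence after 10 min with luciferase detection reagent.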
Potency is the fitted concentration of half-maximal effect; tags give direction and shape of the fitted curve.

Structure (SMILES) | Potency
O=C(Nc1ccc(F)cc1)c1ccc2nsnc2c1 | inconclusive [activator, single point]
O=C(Nc1ccccc1)OCCCc1ccccc1 | inconclusive [activator, single point]
Clc1ccc(C2=NNC(=NCc3ccccc3)SC2)cc1 | inconclusive [activator, partial curve]
Cc1cc(C(=O)COc2ccccc2C(N)=O)c(C)n1CC1CCCO1 (centres undefined) | inactive
O=C1/C(=C/N(C(=O)c2ccco2)c2ccc(Br)cc2)Sc2ccccc21 | inconclusive [activator, single point]
Cc1cccc(C(=O)NC(=S)NNC(=O)c2cccs2)c1 | inactive
CCOC(=O)c1sc(=NC(=O)c2cccs2)n(C)c1C | inconclusive [activator, single point]
NNC(=O)Cn1c(-c2ccccc2)cc(=O)n2ncnc12 | inactive
CSc1ccc(Cc2ccc(Cl)cc2Cl)nn1 | inconclusive [activator, single point]
CCC(C)NC(=O)c1ccc(C(=O)c2ccccc2)cc1 (centres undefined) | inconclusive [activator, single point]
c1ccc(COc2ccccc2CNC23CC4CC(CC(C4)C2)C3)cc1 | inactive
O=C(NCC(=O)N1CCCCC1)c1sc2ccccc2c1Cl | active: 2.24 µM
CCCCC(=O)NC(=S)Nc1cccc(NC(=O)CC)c1 | inactive
Cc1cc(=O)oc2cc(NC(=O)c3ccc(OC(F)F)cc3)ccc12 | inconclusive [activator, full curve]
c1ccc2nc3c(cc2c1)CCCCC3 | inactive
COc1cccc(CNC(=O)CN(c2cc(C)cc(C)c2)S(=O)(=O)c2c(C)noc2C)c1 | active: 3.55 µM
COc1ccc(OCc2csc(N)n2)cc1 | active: 2.82 µM
CCN1CCN(c2ccc(S(=O)(=O)N3CCCCC3)cc2NC(=O)CC(NC(C)=O)c2ccccc2)CC1 (centres undefined) | inactive
CC(=O)Nc1ncc(N=Nc2cccc(C(F)(F)F)c2)s1 | inactive
C/C(CC(=O)Nc1cccc(F)c1)=N\NC(=O)c1ccncc1 | inactive
O=C(Cc1cccs1)Nc1ccccc1C(=O)O | inconclusive [activator, single point]

Structure (SMILES) | Potency
O=C1CCCc2nc(N3CCCCC3)sc21 | inactive
O=C(Nc1ccc(Cl)cc1Cl)c1ccc2ncsc2c1 | active: 2.24 µM
COc1ccccc1/C=C1\Oc2cc(OC(=O)N3CCOCC3)ccc2C1=O | inactive
CC(C)C(=O)Nc1nnc(SCc2cccc(F)c2)s1 | inconclusive [activator, single point]
N#Cc1c(SCC(=O)Nc2nncs2)sc2c(O)cc(=O)[nH]c12 | inactive
N#Cc1nc(-c2cccc3ccccc23)oc1N1CCCCC1 | inconclusive [activator, single point]
CCCCN(C)C(=O)c1cc2cc3ccc(OC)cc3nc2o1 | active: 3.55 µM
Cc1ccccc1-c1nc(-c2ccc(NC(=O)c3cccs3)cc2)no1 | active: 3.98 µM
Fc1ccc(-c2csc(N3CCC(c4ccccc4)C3)n2)cc1 (centres undefined) | active: 3.55 µM
COc1ccc(OCC(=O)Nc2cc(C)c(Cl)cc2OC)c([N+](=O)[O-])c1 | inconclusive [activator, partial curve]
O=C(O)c1nn(Cc2ncc(-c3cccc(Cl)c3)o2)c(=O)c2ccccc12 | inactive
Cc1cc(C)n(-c2nc(-c3ccc(Cl)cc3)cs2)n1 | active: 3.55 µM
Cc1ccc(S(=O)(=O)Nc2ccccc2CNc2ccccn2)cc1 | inactive
COc1ccccc1C(=O)Nc1nsc(-c2ccccc2)n1 | active: 1.58 µM
CC(C)(C)c1cc(C(=O)N/N=C/c2ccco2)n[nH]1 | inconclusive [activator, single point]
Cc1nc(NC(=O)C2CCCCC2)sc1C | inconclusive [activator, partial curve]
Cc1[nH]n(C(N)=S)c(=O)c1N=Nc1cccc([N+](=O)[O-])c1C | active: 2.51 µM
Cc1ccc2nc(SCn3nnc4ccccc4c3=O)[nH]c2c1 | active: 1.78 µM
CCOC(=O)Cc1csc(NC(=O)CN2CCN(CC)CC2)n1 | inactive
Cc1sc2ncnc(SCC(=O)c3cccs3)c2c1C | inconclusive [activator, single point]
CC(=O)NS(=O)(=O)c1ccc(NC(=O)CC23CC4CC(CC(Br)(C4)C2)C3)cc1 | inactive

Structure (SMILES) | Potency
Cc1ccc(NC(=O)Nc2nnc(-c3ccccc3)o2)cc1 | inconclusive [activator, single point]
CCOCC(=O)Nc1ccc(Br)c(C)c1 | inconclusive [activator, single point]
NC(=O)c1sc2nc3c(cc2c1N)CCC3 | inconclusive [activator, single point]
Oc1[nH]c2ccccc2c1N=Nc1nc(Nc2ccccc2)nc(N2CCOCC2)n1 | inactive
CC(=O)Nc1ccccc1C(=O)C(=O)Nc1ccc(C)c(C)c1 | active: 0.891 µM
CCOC(=O)CN1C(=O)CN(c2ccc(C)cc2)C1=O | inconclusive [activator, partial curve]
O=C(c1cccs1)N(C(=O)c1cccs1)c1ccccn1 | inconclusive [activator, single point]
CSC1=NS(=O)(=O)c2c(C)nn(C)c2S1 | inactive
CCOC(=O)C1(Cc2cccc(OC)c2)CCCN(C(=O)c2cc(C)on2)C1 (centres undefined) | active: 3.16 µM
Cc1cc2ccccc2n1CCNC(=O)c1ccc(Br)o1 | inconclusive [activator, single point]
CNC(=O)c1c(NC(=O)c2nc3ccccc3s2)sc2c1CCC2 | active: 2 µM
Cc1ccc(C(=O)Nc2cc(C)c(OCC(=O)N3CCOCC3)c(C)c2)cc1 | active: 2.82 µM
Cc1ccc(CN2C(=O)N/C(=C/c3cc(C)n(-c4ccccn4)c3C)C2=O)cc1 | inconclusive [activator, single point]
Cc1c(O)ccc(/C(Cc2ccc3ccccc3n2)=N\N)c1O | inactive
O/N=C/c1cn(-c2ccc(Cl)cc2)nn1 | inconclusive [activator, partial curve]
Cc1ccc(NC(=O)CSc2nnc(-c3cccs3)o2)cc1S(=O)(=O)N(C)C | active: 3.55 µM
CCn1c2ccccc2c2c3ncc4cccn4c3ccc21 | inconclusive [activator, single point]
Cc1ccc(-c2nc(C#N)c(NCCc3ccccn3)o2)cc1 | inconclusive [activator, single point]
O=C1c2ccccc2NC(c2ccccn2)N1c1ccccc1F (centres undefined) | inactive
CCOc1cc(/C=C/c2nc3ccccc3c(=O)[nH]2)ccc1O | inconclusive [activator, single point]
Cc1cccc(OCC(=O)NCCNC(=O)c2ccncc2)c1 | inactive

Structure (SMILES) | Potency
Cc1ccccc1NC(=O)c1nc2nccc(C)n2n1 | active: 3.55 µM
O=C(Nc1nc(-c2ccccc2)cs1)c1ccco1 | inconclusive [activator, partial curve]
Cc1c(C(=O)N2C[C@@H](C)O[C@@H](C)C2)oc2c(F)cccc12 | inconclusive [activator, single point]
O=S(=O)(Nc1c(F)cccc1F)c1ccc(Cl)nc1 | inactive
COc1ccc(Cc2nc(-c3ccccc3)no2)cc1 | inconclusive [activator, single point]
C/C(=N\Nc1nccnc1Cl)c1ccc(O)c(C)c1 | inconclusive [activator, single point]
COC(=O)Nc1ccc(SCC(=O)c2ccccc2)cc1 | inconclusive [activator, single point]
COC(=O)c1ccc(-c2nc(-c3cccs3)no2)cc1 | inconclusive [activator, full curve]
COC(=O)N/N=C/c1cccc([N+](=O)[O-])c1 | inactive
O=C(N/N=C/c1ccc([N+](=O)[O-])cc1)c1cccs1 | inconclusive [activator, single point]
Cc1ccc(NC(=O)N2CCCC2C(=O)Nc2ccc3c(c2)OCCO3)cc1 (centres undefined) | inactive
COc1ccc(-c2cn3cc([N+](=O)[O-])ccc3n2)cc1OC | inconclusive [activator, partial curve]
Cc1ccc(NC(=O)c2cc(N3C(=O)C=CC3=O)ccc2Cl)cc1C | inactive
O=C1COc2ccc(C(=O)c3ccccc3C(=O)O)cc2N1 | inactive
COC(=O)c1ccc(CSc2ccccc2C)o1 | inconclusive [activator, single point]
O=C(Nc1ccccc1)c1nccn1Cc1ccc(F)cc1 | inconclusive [activator, single point]
CC1CCCN(C(=O)CSc2nnc(-c3cccs3)o2)C1 (centres undefined) | active: 3.55 µM
c1ccc(-c2nc(-c3ccc(-c4ccon4)s3)no2)cc1 | active: 1.41 µM
COc1ccc(CN(Cc2cccnc2)S(=O)(=O)c2ccc(-n3cnnn3)c(OC)c2)cc1 | inconclusive [activator, single point]
Cc1cc(NC(=S)Nc2ccc(C)c(Cl)c2)n[nH]1 | inconclusive [activator, single point]
CN(C(=O)c1ccco1)c1nc(-c2ccc(Cl)cc2)cs1 | active: 3.16 µM

Reference: PubChem BioAssay AID485297 (National Center for Advancing Translational Sciences (NCATS), 2010)
